This is an account of results in the RNAGym collection of RNA variant scans (doi:10.1093/nar/gkz1192).

First the molecules themselves.
B1: CPEB3 Ribozyme (parent)
chain: UAACAGGGGGCCACAGCAGAAGCGUUCACGUCGCAGCCCCUGUCAGAUUCUGGUGAAUCUGCGAAUUCUGCUGUAUAUCUC

The source gives no read counts; variants with many changes may rest on few reads.

In the data set the parent is B1. Description: self-cleavage, relative activity (ratio to wild type); higher = more cleavage; in vitro, sequencing. Summed up: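 After error-prone PCR and barcoding, CPEB3 ribozyme mutant libraries were transcribed with T7 RNA polymerase at 37°C for 5 hours, then given 15 min with DNase I before an EDTA stop, and they cleaved during both steps. Reverse transcription with template switching preceded Illumina sequencing. Relative activity divides a variant's cleaved/total read fraction by the unmutated ribozyme's. At least 5 reads were required per variant, and three batches were averaged.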
Take A3G A45G U74A: the self-cleavage is 1.24.
The value for A3G A15G G61A A65G U78C was 0.27; that for A3G C14A A20G U31C A64G was 0.12; that for A3G A64G U69C U78C was 0.6.
The value for A3G C11U A35C G73C A77U was 0.97; that for A3C A5G A35U U51A was 0.6.
The value for A3C U41A U49A G53A U78C was 0.45; that for A3G A18G U41C U49C A57G U78C was 0.2; that for A3G C40A U49C A64G G70A U76A was 0.14.
Take A3G A5G C23U U31A U69C U78C: the self-cleavage came out at 0.18.
The value for A3G A5U A21G G33C G53A was 0.15; that for A3C C12U A35G was 0.93.
The figure for A3G A13U U58C U67C U78C U80C is 0.19; for A3C C29U U67A it is 0.42.
On to A2U U48C U54G, for which the self-cleavage was determined as 0.34.
The value for A3G A13U A18U A64U was 0.26.
On to A3G A5G A15U U25C U31A U74A, for which the self-cleavage amounted to 0.61.
As for A3C G52A A65G, the self-cleavage was found to be 1.02.
In the case of A3G A15C U49C U72C, the self-cleavage is 0.43.
The value for A3G A5G U43C U60C C62G was 0.1.
The figure for A3G G7A A28G U66C is 0.08; for A3G A13U U51A U58C U72C it is 0.59; for A3G A57G U67A it is 0.49.
The figure for A3C A5G A15G U25A U51C U78C U80G is 0.05; for A3G A20U U25C U43C U58C it is 0.3.
In the case of A3G A15G U25C A28G U60C U72C, the self-cleavage amounted to 0.41.
The value for A3G G6U A21G was 0.29; that for A3G A28U U48A U49C was 0.28.
The figure for A3G A20G A28U A47U U51C U54C is 0.15; for A3G C40A U58C U69C U72C it is 0.34.
The value for A3G A20G U26C C68U was 0.46; that for A3G A20G U43A U51C G55U U60C A64G was 0.13; that for A3G C11G A18G U67C was 0.12.
As for A3G A28G A64G U72C, the self-cleavage was 0.28.
In the case of A3G A21G U43G U72G, the self-cleavage came out at 0.07.
The value for A3G A5G U72C A75G U78A was 1.14; that for A3G A13G C34U A35G A75G was 0.73; that for A3G A13G U31A C40A G52A U74C A75G was 0.07.
The value for A3G A35G U41A U51C U54G U67C U72A was 0.09; that for A3G A45G U51A A77C was 0.67; that for A3G A45G U60C was 1.09.
The figure for A3G A18G U41C is 0.71; for A3G A21G A28U A35G U58C A64U it is 0.32.
A3G A45C U48C A65G C79U: the self-cleavage amounted to 0.
The value for A2U G8U U54C C62A was 0.05; that for A3G A28G U80A was 1.02.
The value for A3G A15U A64G A65G was 0.02.
In the case of A3G A28G G33A U60C, the self-cleavage is 0.36.
The value for A3G A5G A21G U25A U54A U58C U66C was 0.08; that for A3G A21G U41A A57G U60C A65G was 0.09.
The figure for A2U U41C U54G A56G U72C U74C A77U is 0.33.
The value for A2U U26C A77U U80A was 0.33.
Regarding A2U U25C U48C U78C, the self-cleavage was 0.15.
The value for A3G C29U U43C U54G A65U A75G U80A was 0.05; that for A3G A13G A47G A64G A77U was 0.95.
On to A3C A20G A35U A47U U51C U58C U74C, for which the self-cleavage is 0.13.
In the case of A3G A18G U26A A45U U66C U69C, the self-cleavage stood at 0.12.
The figure for A3G G6A C12G U43C A47G U49A is 0.07.
Take A2U U26C A28G U43C: the self-cleavage was found to be 0.26.
The figure for A3G C40A U72G U80C is 0.17; for A3G A35G C40U A65G it is 0.79; for A3G A45G A57G U60A A64G U66C it is 0.17.
The figure for A3G C12U U41C U43C is 0.5; for A3G C17A A47G U51A U58C it is 0.2; for A3G G6U U25C U43A A65G it is 0.28.
The figure for A3G A21G U49C U51C U54C G55A is 0.32; for A2U U26C C34U it is 0.23.
A3G C38U A45G U49C U67C A77C: the self-cleavage is 0.12.
In the case of A2U U51A U72C, the self-cleavage was 1.16.
For A2U U25C U31C U54C U76C, the self-cleavage came to 0.09.
The value for A3G A20U U54G U80A was 0.51.
The value for A3G C40U A45G U67C was 0.24.
The figure for A3G C4G A15U G22U U26C U54C U60C is 0.23.
In the case of A3G A20G A28G A35U U72G U76A, the self-cleavage turned out to be 0.14.
The figure for A3G A64G C81U is 0.97.
The figure for A3G A5U A18G U26A U48A is 0.54; for A3G A21G U26C U49A A57G it is 0; for A2U U26A G30A it is 0.16.
The value for A3G A15G U43C A47G U69C was 0.39; that for A3G A18U G70C was 0.51; that for A3G A5G A18G A28G U49C U72G was 0.39.
Turning to A3C A21U U26C U43A U58C, the self-cleavage amounted to 0.3.
A3G C4G A18G C40U U69C: the self-cleavage was 0.77.
The value for A3G C11G A77G was 0.47.
